No constants are given. Whether binding was seen depends on the method and setting. For some assays here: Sequences can lack the tags named with a protein.

The target in test [1] is T1, mCherry-LacRnls-FIGNL1 amino acids 1 to 120 (human), Q6PIW4.
T1 chain: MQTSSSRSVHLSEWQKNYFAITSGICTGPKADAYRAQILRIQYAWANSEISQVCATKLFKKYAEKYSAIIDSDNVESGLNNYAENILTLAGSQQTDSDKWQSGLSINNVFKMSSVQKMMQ
As to the kind of experiment: LacO/LacR tethering assay (recruitment to a LacO array in cells); mCherry-LacRnls-bait transiently transfected and held at the LacO array of U2OS 2-6-5 cells; colocalization of the GFP-tagged prey at the mCherry locus quantified; FOK1 nuclease not expressed. The conditions noted are these: remark: other sources report otherwise.

The target in test [2] is T2, mCherry-LacRnls-FIRRM (human), Q9NSG2.
T2 chain: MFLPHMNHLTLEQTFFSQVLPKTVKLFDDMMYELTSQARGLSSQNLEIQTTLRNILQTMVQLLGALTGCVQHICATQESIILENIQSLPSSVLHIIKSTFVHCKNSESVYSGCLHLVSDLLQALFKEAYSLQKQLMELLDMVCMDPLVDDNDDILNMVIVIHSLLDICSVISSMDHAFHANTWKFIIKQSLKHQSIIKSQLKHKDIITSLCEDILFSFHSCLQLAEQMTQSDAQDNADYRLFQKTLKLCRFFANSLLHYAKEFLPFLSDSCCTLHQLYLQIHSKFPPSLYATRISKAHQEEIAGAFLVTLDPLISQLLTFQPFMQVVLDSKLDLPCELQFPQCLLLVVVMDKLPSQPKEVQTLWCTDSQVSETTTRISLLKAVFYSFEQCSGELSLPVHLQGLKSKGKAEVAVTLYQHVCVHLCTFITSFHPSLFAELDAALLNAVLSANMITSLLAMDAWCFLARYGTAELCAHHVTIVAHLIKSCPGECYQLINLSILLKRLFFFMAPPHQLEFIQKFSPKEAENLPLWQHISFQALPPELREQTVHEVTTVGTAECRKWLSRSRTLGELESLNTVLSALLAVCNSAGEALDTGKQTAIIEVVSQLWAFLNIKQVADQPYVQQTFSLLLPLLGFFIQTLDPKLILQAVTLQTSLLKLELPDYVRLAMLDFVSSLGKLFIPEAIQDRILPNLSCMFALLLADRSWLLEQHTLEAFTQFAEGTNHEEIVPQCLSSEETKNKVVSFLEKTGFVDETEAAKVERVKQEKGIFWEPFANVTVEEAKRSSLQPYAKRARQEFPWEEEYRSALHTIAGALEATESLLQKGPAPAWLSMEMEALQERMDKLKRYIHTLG
As to the kind of experiment: LacO/LacR tethering assay (recruitment to a LacO array in cells); mCherry-LacRnls-FIRRM or -FIGNL1 transfected in U2OS 2-6-5 cells and processed for RAD51 immunofluorescence at the LacO array. To be noted: remark: other sources report otherwise.

B1: GFP-FIRRM full length, Q9NSG2 1-853 (protein)
chain: MFLPHMNHLTLEQTFFSQVLPKTVKLFDDMMYELTSQARGLSSQNLEIQTTLRNILQTMVQLLGALTGCVQHICATQESIILENIQSLPSSVLHIIKSTFVHCKNSESVYSGCLHLVSDLLQALFKEAYSLQKQLMELLDMVCMDPLVDDNDDILNMVIVIHSLLDICSVISSMDHAFHANTWKFIIKQSLKHQSIIKSQLKHKDIITSLCEDILFSFHSCLQLAEQMTQSDAQDNADYRLFQKTLKLCRFFANSLLHYAKEFLPFLSDSCCTLHQLYLQIHSKFPPSLYATRISKAHQEEIAGAFLVTLDPLISQLLTFQPFMQVVLDSKLDLPCELQFPQCLLLVVVMDKLPSQPKEVQTLWCTDSQVSETTTRISLLKAVFYSFEQCSGELSLPVHLQGLKSKGKAEVAVTLYQHVCVHLCTFITSFHPSLFAELDAALLNAVLSANMITSLLAMDAWCFLARYGTAELCAHHVTIVAHLIKSCPGECYQLINLSILLKRLFFFMAPPHQLEFIQKFSPKEAENLPLWQHISFQALPPELREQTVHEVTTVGTAECRKWLSRSRTLGELESLNTVLSALLAVCNSAGEALDTGKQTAIIEVVSQLWAFLNIKQVADQPYVQQTFSLLLPLLGFFIQTLDPKLILQAVTLQTSLLKLELPDYVRLAMLDFVSSLGKLFIPEAIQDRILPNLSCMFALLLADRSWLLEQHTLEAFTQFAEGTNHEEIVPQCLSSEETKNKVVSFLEKTGFVDETEAAKVERVKQEKGIFWEPFANVTVEEAKRSSLQPYAKRARQEFPWEEEYRSALHTIAGALEATESLLQKGPAPAWLSMEMEALQERMDKLKRYIHTLG
With B1, in test [1], the binding result is reported as “no binding”.

B2: endogenous RAD51, Q06609 1-339 (protein)
chain: MAMQMQLEANADTSVEEESFGPQPISRLEQCGINANDVKKLEEAGFHTVEAVAYAPKKELINIKGISEAKADKILAEAAKLVPMGFTTATEFHQRRSEIIQITTGSKELDKLLQGGIETGSITEMFGEFRTGKTQICHTLAVTCQLPIDRGGGEGKAMYIDTEGTFRPERLLAVAERYGLSGSDVLDNVAYARAFNTDHQTQLLYQASAMMVESRYALLIVDSATALYRTDYSGRGELSARQMHLARFLRMLLRLADEFGVAVVITNQVVAQVDGAAMFAADPKKPIGGNIIAHASTTRLYLRKGRGETRICKIYDSPCLPEAEAMFAINADGVGDAKD
With B2, the binding entry in test [2] is on record as “no binding”.

The record behind these values is article PMC10411901, “FIRRM cooperates with FIGNL1 to promote RAD51 disassembly during DNA repair” (Science Advances, 2023).
